Results published in PubChem BioAssay AID485344 (National Center for Advancing Translational Sciences (NCATS), 2010).
Screen size: about 340,000 compounds; about 6,900 (2%) were called active. Rule as the data show it: active = inhibition above about 30%; inactive = below that, where a call was filed. Only a part is listed here, and it is no random draw. Where no call is shown, the source filed none.

target: D(2) dopamine receptor (Homo sapiens) (UniProt P14416); test: HTS Assay for Allosteric Antagonists of the Human D2 Dopamine Receptor: Primary Screen for Antagonists; details: HEK293 TREx D2 cells, calcium flux, dopamine EC80; at 10 µM; stronger effect = higher value; also: 0% is about no effect
UniProt P14416, sequence (P14416 whole entry, looked up): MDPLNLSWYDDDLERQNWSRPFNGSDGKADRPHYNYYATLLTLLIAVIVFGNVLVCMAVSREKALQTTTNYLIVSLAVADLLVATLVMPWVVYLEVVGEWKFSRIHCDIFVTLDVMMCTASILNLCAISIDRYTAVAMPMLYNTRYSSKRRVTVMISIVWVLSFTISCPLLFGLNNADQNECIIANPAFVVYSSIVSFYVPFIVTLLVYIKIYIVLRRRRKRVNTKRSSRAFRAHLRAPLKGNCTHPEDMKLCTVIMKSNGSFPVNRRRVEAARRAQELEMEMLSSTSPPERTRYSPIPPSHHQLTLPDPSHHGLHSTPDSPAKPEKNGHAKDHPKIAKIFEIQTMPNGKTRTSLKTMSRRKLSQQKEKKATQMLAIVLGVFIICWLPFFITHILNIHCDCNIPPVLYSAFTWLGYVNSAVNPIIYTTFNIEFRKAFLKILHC
Summary of the method: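 Read-out: kinetic calcium fluorescence (1 cycle/s) in inducible HEK293 T-REx D2 cells after an EC80 dopamine addition that followed 180 s compound preincubation. Loss of the dopamine response indicates antagonism.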

Structure (SMILES) | inhibition
COCCCNC(=O)C1CCN(c2nnc(-n3cccc3CNc3ccc(C)cc3)s2)CC1 | 0.068%
COc1cc2[nH]c(=O)n(CCCC(=O)NCc3ccccc3Cl)c(=O)c2cc1OC | -18.4%
O=C(CSc1nc(-c2ccco2)nc2cc(=O)[nH]n12)Nc1ccccc1Cl | -14.8%
O=C(Cn1c(=O)oc2ccccc21)NCc1ccccc1Cl | 4.24%
O=C(NC1CCN(Cc2ccccc2)CC1)c1ccccc1 | active: 73.8%
COc1ccc(-n2c(-c3ccc(F)cc3)cn3c4c(=O)n(C)c(=O)n(C)c4nc23)cc1 | -3.77%
CCOc1ccc2ncc3c(-c4ccccc4)nn(CC(=O)Nc4cccc(F)c4)c3c2c1 | -0.204%
Cc1ccc(C)c(N2CCN(CCCNC(=O)Cn3c(-c4cccs4)cc4ccccc43)CC2)c1 | -10.3%
CCOC(=O)c1cnc(-n2nc(C)cc2C)nc1NCCc1ccccc1 | active: 34.3%
CCOC(=O)c1sc(N2C(=O)c3oc4ccc(F)cc4c(=O)c3C2c2cccc(OC)c2)nc1C (configuration not stated) | -9.14%
CCN(C(=O)Cn1c(SCc2ccccc2F)nc2cccnc21)c1ccccc1 | -5.93%
Cc1cc(N2CCCCC2)nc2ccc(NC(=O)CCC(=O)N3CCN(c4cccc(Cl)c4)CC3)cc12 | -19.4%
Cc1ccc2scc(N3CCN(c4ccccc4)CC3)c(=O)c2c1 | 17.4%
CCOc1ccc(CCNC(=O)c2ccc3[nH]c(C)c(C)c3c2)cc1 | -3.76%
O=C(NC1CCCC1)C(c1ccncc1)N(Cc1cccs1)C(=O)c1csnn1 (configuration not stated) | active: 35.6%
O=C(CSCc1nc2cccnc2n1C1CCCCC1)NCc1cccc(Br)c1 | -12.5%
O=C(OCc1ccccc1)c1ccc(-c2nnn(Cc3ccccc3F)n2)cc1 | 19%
CCCNC(=O)c1cc2n(n1)CCCN(Cc1ccc(F)cc1)C2=O | 25.3%
O=C(c1ccc2c(c1)N(Cc1ccccc1F)C(=O)c1ccccc1S2(=O)=O)N1CCCCCC1 | -4.72%
CCOc1ccc(CCNC(=O)c2ccc(Cn3c(=O)c4cccn4c4cccnc43)cc2)cc1 | 0.715%
COc1ccc(-c2csc3ncnc(Nc4ccc(OC)c(OC)c4)c23)cc1 | -9.79%
COc1cccc(C(=O)c2sc(Nc3ccc(C)cc3C)c(S(=O)(=O)c3ccccc3)c2N)c1 | -6.37%
CCOc1ccc(NC(=O)C(CC)n2nc(-c3ccc(C)c(C)c3)ccc2=O)cc1 (configuration not stated) | 1.86%
CCOc1ccc(OCC)c(NC(=O)CN(c2ccc(C)cc2)S(=O)(=O)c2c(C)n[nH]c2C)c1 | -9.26%

Structure (SMILES) | inhibition
COc1ccc(C2CC(=O)c3c([nH]c(C(=O)OC4CCCC4)c3C)C2)cc1OC (configuration not stated) | -8.04%
COc1ccccc1N1CCN(C(c2ccccc2)c2nnc(-c3ccccc3Cl)o2)CC1 (configuration not stated) | 6.8%
Cc1ccc(NC(=O)Cn2c(=O)n(Cc3nc(-c4ccccc4)no3)c(=O)c3cc4c(cc32)OCO4)cc1C | -2.88%
NC(=Nc1ccc(Cl)cc1)c1ccccc1 | active: 33.9%
Cc1ccc(C)c(NC(=O)C2CCCN(S(=O)(=O)c3cccc4nsnc34)C2)c1 (configuration not stated) | -2.37%
CCC1CCCCN1C(=O)Cn1c(=O)n(-c2ccccc2C(F)(F)F)c(=O)c2c(C)c(C(=O)N(C)C)sc21 (configuration not stated) | -21.5%
CCOC(=O)c1ccc(N2C(=O)c3[nH]nc(-c4ccccc4)c3C2c2cccs2)cc1 (configuration not stated) | 11%
Cc1cccc(N(CC(=O)NC2CCCC2)C(=O)CS(=O)CC(=O)Nc2ccc3c(c2)OCO3)c1 (configuration not stated) | active: 31.7%
COc1ccc(CCNc2nc(SCc3ccccc3Cl)nc3ccccc23)cc1OC | -27.9%
CCOc1cc(C=O)ccc1OCCSc1ccc(C)cc1 | active: 39.6%
COc1ccc(NC(=O)Cn2c(=O)n(CCc3ccccc3)c(=O)c3sc4ccccc4c32)cc1 | -0.889%
Cc1ccccc1NC(=O)Cn1c(=O)n(CCCCC(=O)NCc2ccccc2Cl)c(=O)c2ccccc21 | -17.2%
O=C(CN1C(=O)COc2ccc(S(=O)(=O)Nc3ccccc3)cc21)NCc1ccccc1Cl | -1.09%
CCOC(=O)c1c(S(=O)(=O)N2CCC(C(=O)Nc3cccc(C#N)c3)CC2)c(C)n(C)c1C | 23.9%
Cc1c(C(=O)OC2CCCCCC2)[nH]c2c1C(=O)CC(c1ccccc1Cl)C2 (configuration not stated) | 6.32%
CCN(CC)S(=O)(=O)c1ccc(C(=O)NC2CC(=O)N(c3ccc4c(c3)OCCO4)C2)cc1 (configuration not stated) | 2.56%
Cc1ccc(-c2ccc(=O)n(CC(=O)NC(C)c3ccccc3)n2)cc1 (configuration not stated) | 1.11%
CCC1CN(C(=O)NCc2cccc(OC)c2)c2ccccc2O1 (configuration not stated) | 10.9%
COc1ccc(-c2[nH]c(-c3ccccc3)nc2SCC(=O)NC2CCCC2)cc1 | 2.44%
COc1ccc(CCNC(=O)c2cc3c(=O)n(C)c4cc(Cl)ccc4c3s2)cc1OC | -9.4%
COc1ccc(-c2cc(NCc3ccc(C)cc3)n3cnnc3n2)cc1 | 11%
CCN1C(=O)c2ccccc2Sc2ccc(NC(=O)Nc3ccc(Br)c(C)c3)cc21 | -28.2%
O=S1(=O)c2ccccc2N(Cc2ccccc2Cl)c2ccccc21 | -3.21%
